# Hit rate of the full screen: of about 340,000 compounds, about 20 (0.006%) were called active. Inconclusive means that the source gave no clear call. Such entries were picked first, then a sample of the others. Calls come from the whole dose curve; as a rule, active = well fitted inhibition curve with a large enough effect; inconclusive = small, poorly fitted or top-dose-only effect; inactive = no such curve, though single readings can be large or run the other way. Potencies beside an inconclusive call are fits to weak or partial responses and may not hold up.
# Molecular target: Sphingomyelin phosphodiesterase (Homo sapiens) (UniProt P17405)
# Chain of UniProt P17405 (P17405 whole entry, looked up): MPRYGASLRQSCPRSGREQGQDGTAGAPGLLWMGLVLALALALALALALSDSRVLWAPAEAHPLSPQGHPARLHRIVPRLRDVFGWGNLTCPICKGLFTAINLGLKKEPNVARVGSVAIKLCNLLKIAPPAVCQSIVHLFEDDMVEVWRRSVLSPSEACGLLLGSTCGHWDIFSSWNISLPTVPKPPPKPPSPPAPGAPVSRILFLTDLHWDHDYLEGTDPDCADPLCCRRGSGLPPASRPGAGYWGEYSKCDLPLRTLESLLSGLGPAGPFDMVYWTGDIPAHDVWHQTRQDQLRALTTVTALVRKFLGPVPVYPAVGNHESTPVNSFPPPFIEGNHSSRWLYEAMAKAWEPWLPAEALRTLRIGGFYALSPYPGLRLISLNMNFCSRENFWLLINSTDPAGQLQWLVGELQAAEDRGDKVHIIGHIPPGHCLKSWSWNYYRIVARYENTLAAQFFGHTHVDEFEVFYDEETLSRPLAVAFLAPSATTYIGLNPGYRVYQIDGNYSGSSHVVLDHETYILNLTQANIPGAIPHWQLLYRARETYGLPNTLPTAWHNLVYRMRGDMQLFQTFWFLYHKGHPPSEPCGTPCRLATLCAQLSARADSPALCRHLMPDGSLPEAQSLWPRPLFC
# Assay: Inhibitors of Secretory Acid Sphingomyelinase (S-ASM): qHTS
# Details: placental ASM, HMU-PC fluorogenic substrate (series up to 57.5 µM), 60 min
# In short: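 qHTS format. ASM enzyme prepared from human placenta hydrolyses the fluorogenic substrate HMU-PC0 (9 uM final) over 60 min at 37 °C after a 10 min compound preincubation.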
# Potency is the fitted concentration of half-maximal effect; tags give direction and shape of the fitted curve.
row,SMILES,Potency
1,Fc1ccc(-c2nc(-c3cccs3)[nH]c2-c2ccc(F)cc2)cc1,"inconclusive: 89.1 µM [inhibitor, partial curve, poor fit]"
2,C#CCOCCOCCOCCNc1nc(N2CCN(C(=O)C(Cc3cc4ccccc4[nH]3)n3cc(C(N)Cc4ccc(O)cc4)nn3)CC2)nc(N2CCN(C(=O)C(Cc3cc4ccccc4[nH]3)n3cc(C(N)Cc4ccc(O)cc4)nn3)CC2)n1 (stereo not given),"inconclusive: 79.4 µM [inhibitor, single point]"
3,Cc1nn(Cc2ccccc2)c(C)c1/C=N/NC(=O)CNc1cccc(C(F)(F)F)c1,"inconclusive: 141 µM [inhibitor, partial curve, poor fit]"
4,CN(CCO)c1ccc(C=NNc2ccc([N+](=O)[O-])cc2S(=O)(=O)Nc2ccccc2C(=O)O)cc1,"inconclusive: 79.4 µM [inhibitor, single point]"
5,CCc1ccc(NC(=O)COC(=O)Cn2cnc3ccccc32)cc1,"inconclusive: 25.1 µM [inhibitor, partial curve, poor fit]"
6,COc1ccc(CN(C(=O)c2ccc(-c3ccccc3)[nH]2)C(C(=O)NC(C)(C)C)c2ccncc2)cc1 (stereo not given),"inconclusive: 100 µM [inhibitor, partial curve, poor fit]"
7,CCC(C)Sc1cc(-c2nc3ccc(Cl)cn3c2NC2CCCCC2)ccc1OC (stereo not given),inactive
8,CN(C)c1ccc(C=c2c3cc(O)ccc3n3c2cc(-c2ccccc2)[n+]3C)cc1,"inconclusive: 89.1 µM [inhibitor, partial curve]"
9,O=C(Nc1ccc2ccccc2c1)Nc1ccc2snnc2c1,"inconclusive: 89.1 µM [inhibitor, single point]"
10,COc1ccccc1OCc1ccc(C(=O)NCCN(C)C)o1,inactive
11,O=C(NC1=NCCS1)c1cc(-c2ccc(-c3ccccc3)cc2)nc2ccccc12,inactive
12,CCCc1ccc(Oc2c(-c3ccc(O)c(C)c3O)n[nH]c2C)cc1,"inconclusive: 79.4 µM [inhibitor, single point]"
13,Clc1cccc(-c2cc3nc4c(c(NCc5ccco5)n3n2)CCCC4)c1,"inconclusive: 89.1 µM [inhibitor, partial curve]"
14,COc1ccc(Nc2nc(-c3cc4cccc(OC)c4oc3=O)cs2)cc1,"inconclusive: 708 µM [inhibitor, partial curve, poor fit]"
15,CCOc1cc(-c2nc(-c3ccccc3)c(-c3cc([N+](=O)[O-])ccc3C)[nH]2)ccc1O,"inconclusive: 89.1 µM [inhibitor, single point]"
16,O=C(Nc1nc(-c2cccc([N+](=O)[O-])c2)cs1)C(c1ccccc1)c1ccccc1,"inconclusive: 3980 µM [inhibitor, partial curve, poor fit]"
17,Cc1c(CN2CCC(n3nccc3NC(=O)C3CC3)CC2)[nH]c2ccccc12,inactive
18,C/C(=N\Nc1nncc2ccccc12)c1cccc(OC(F)F)c1,"inconclusive: 89.1 µM [inhibitor, single point]"
19,Cc1[nH]n(-c2nc(-c3ccc(Cl)cc3)cs2)c(=O)c1N=Nc1ccc(O)cc1,"inconclusive: 63.1 µM [inhibitor, partial curve, poor fit]"
20,CCC1CCCCN1CCNC(=O)C1CCN(S(=O)(=O)c2cccc3nsnc23)CC1 (stereo not given),inactive

row,SMILES,Potency
1,CCC(C)c1ccc(NC(=O)Nc2cccnc2)cc1 (stereo not given),inactive
2,O=C1NC(Nc2nc3ccccc3s2)(C(F)(F)F)C(=O)N1C1CCCCC1 (stereo not given),"inconclusive: 112 µM [inhibitor, partial curve, poor fit]"
3,O=c1c2ccccc2n(Cc2cccc(F)c2)c(=O)n1C1CCCC1,"inconclusive: 100 µM [inhibitor, partial curve, poor fit]"
4,CCOC(=O)c1ccc(Nc2nc(N3CCOCC3)nc(N3CCOCC3)n2)cc1,inactive
5,CC(=O)Nc1ccc(NC(=O)C(C)OC(=O)CC23CC4CC(CC(Br)(C4)C2)C3)cc1 (stereo not given),"inconclusive: 447 µM [inhibitor, partial curve, poor fit]"
6,COc1ccc(-c2nc(-c3ccc4c(c3)OCO4)[nH]c2-c2ccc(OC)cc2)cc1,inactive
7,O=c1cc(-c2ccc(O)c(-c3c(O)cc(O)c4c(=O)cc(-c5ccc(O)cc5)oc34)c2)oc2cc(O)cc(O)c12,"inconclusive: 89.1 µM [inhibitor, partial curve]"
8,CC(C(=O)NC1C=CS(=O)(=O)C1)N1C(=O)/C(=C/c2cccc(Cl)c2)SC1=S (stereo not given),"inconclusive: 89.1 µM [inhibitor, single point]"
9,Cn1c(=O)c2c(nc(NCc3ccco3)n2Cc2ccc(Cl)cc2Cl)n(C)c1=O,"inconclusive: 282 µM [inhibitor, partial curve, poor fit]"
10,Cc1ccc(O)c(-c2cc(-c3cccc(F)c3)n[nH]2)c1,inactive
11,CCOc1ccc2nc(NC(=O)C3(C)CC3(Br)Br)sc2c1 (stereo not given),inactive
12,CC(C)(Cc1ccc(O)cc1)NC(=O)CC(=O)N=Nc1c(O)[nH]c2ccc(Br)cc12,"inconclusive: 100 µM [inhibitor, partial curve, poor fit]"
13,CC(=O)Nc1ccc(Sc2ncnc3scc(-c4ccccc4)c23)cc1,inactive
14,CNC(=S)N/N=C/c1cn(Cc2ccc(C)cc2)c2ccccc12,"inconclusive: 89.1 µM [inhibitor, single point]"
15,O=C1CN(C(=O)c2ccc(Br)o2)C(c2ccccc2)c2cc(Br)ccc2N1 (stereo not given),"inconclusive: 178 µM [inhibitor, partial curve, poor fit]"
16,Cc1cccc(C2(c3cccc(C)c3)CC2C(=O)Nc2ccc([N+](=O)[O-])cc2O)c1 (stereo not given),"inconclusive: 89.1 µM [inhibitor, single point]"
17,COc1cccc(OC)c1NC(=O)Cc1nn(C)c(=O)c2ccccc12,inactive
18,COc1ccc(NC(=O)N(C)C[C@H]2Oc3c(NC(=O)NC(C)C)cccc3C(=O)N([C@H](C)CO)C[C@@H]2C)cc1,inactive
19,Cc1nc2c(ccc3nc(NC(=O)Cc4cccc5ccccc45)sc32)s1,inactive
20,N#C/C(=C/c1ccc(N2CCOCC2)o1)c1ccc(Cl)cc1,"inconclusive: 112 µM [inhibitor, partial curve, poor fit]"

# From PubChem BioAssay AID504937 (National Center for Advancing Translational Sciences (NCATS), 2011)
